# Screen size: about 310,000 compounds; about 14,000 (4.5%) showed an effect of 50% or more. Effects have a minus sign here. The list shows a part of the results. Where a SMILES comes first, the peptide text is derived from it. The star is where a group is joined. OBn = c1ccc(CO*)cc1
# Target: human ether-à-go-go-related gene (hERG) potassium channel (human, UniProt Q12809)
# Assay: primary screen, population patch clamp on CHO cells stably expressing hERG
# 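Also: peak tail current of the secondary pulse compared with the same well before compound.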
# Chain of human ether-à-go-go-related gene (hERG) potassium channel (Q12809 whole entry, looked up): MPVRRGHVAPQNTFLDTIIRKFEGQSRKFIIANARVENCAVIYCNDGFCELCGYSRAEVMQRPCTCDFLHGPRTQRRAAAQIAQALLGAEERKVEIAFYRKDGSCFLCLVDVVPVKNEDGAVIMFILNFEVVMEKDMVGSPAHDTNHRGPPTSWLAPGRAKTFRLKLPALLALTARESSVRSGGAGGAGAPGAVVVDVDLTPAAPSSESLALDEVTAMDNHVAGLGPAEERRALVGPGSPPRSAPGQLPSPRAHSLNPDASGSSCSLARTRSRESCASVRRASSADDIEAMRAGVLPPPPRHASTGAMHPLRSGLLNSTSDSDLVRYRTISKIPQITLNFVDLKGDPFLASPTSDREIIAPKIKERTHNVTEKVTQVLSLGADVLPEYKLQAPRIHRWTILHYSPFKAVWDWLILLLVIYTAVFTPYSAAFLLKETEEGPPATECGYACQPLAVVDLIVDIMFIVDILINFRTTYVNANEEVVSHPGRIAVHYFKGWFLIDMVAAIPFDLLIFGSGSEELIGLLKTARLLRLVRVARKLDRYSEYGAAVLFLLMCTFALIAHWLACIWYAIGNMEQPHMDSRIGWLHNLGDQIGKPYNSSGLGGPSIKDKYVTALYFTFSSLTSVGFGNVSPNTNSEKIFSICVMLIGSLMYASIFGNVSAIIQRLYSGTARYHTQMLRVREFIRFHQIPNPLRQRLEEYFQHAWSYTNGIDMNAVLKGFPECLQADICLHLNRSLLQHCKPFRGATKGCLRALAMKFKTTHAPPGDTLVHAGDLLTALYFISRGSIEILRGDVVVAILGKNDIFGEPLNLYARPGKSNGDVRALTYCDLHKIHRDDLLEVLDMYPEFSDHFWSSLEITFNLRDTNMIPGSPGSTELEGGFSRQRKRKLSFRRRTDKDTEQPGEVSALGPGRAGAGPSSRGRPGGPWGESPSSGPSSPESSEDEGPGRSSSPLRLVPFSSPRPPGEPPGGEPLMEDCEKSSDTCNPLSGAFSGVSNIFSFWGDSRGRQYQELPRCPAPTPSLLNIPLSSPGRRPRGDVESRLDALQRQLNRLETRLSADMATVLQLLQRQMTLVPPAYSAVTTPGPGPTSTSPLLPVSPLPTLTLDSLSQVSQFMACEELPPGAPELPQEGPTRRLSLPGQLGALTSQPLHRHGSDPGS
row,SMILES,"hERG current change (%, negative = inhibition) at 10uM [%]"
1,COc1ccc(-c2c(C)oc3c(CN4CCCCC4C)c(O)ccc3c2=O)cc1OC (stereo not drawn),-2.11
2,O=C(O)C(=O)O.O=C(c1ccco1)N1CCN(Cc2ccccc2Br)CC1,5.99
3,CCCc1cc(=O)[nH]c(SCC(=O)N(C)C2CCS(=O)(=O)C2)n1 (stereo not drawn),6
4,CCn1c2ccccc2c2cc(CN3CCN(S(C)(=O)=O)CC3)ccc21.O=C(O)C(=O)O,2.38
5,COc1ccc(/C=N/NC(=O)CSc2ccccc2)cc1OC,-14.1
6,O=C(c1ccc(CN2CCOCC2)cc1)N1CCN(Cc2ccccc2)CC1,15.4
7,CCn1c2ccccc2c2cc(NC(=O)CNCc3ccccc3OC)ccc21,15.1
8,c1ccc2c(c1)OCC(c1nn3c(Cn4nnc5ccccc54)nnc3s1)O2 (stereo not drawn),-18.4
9,CCOC(=O)C1(Cc2cccc(OC)c2)CCCN(S(=O)(=O)N(C)C)C1 (stereo not drawn),7.41
10,CC1=CS(=O)(=O)CC1SC1=Nc2ccccc2[NH2+]1.[Br-] (stereo not drawn),12.9
11,COc1ccc(NS(=O)(=O)c2ccc(N/N=C/c3ccc(N4CCOCC4)cc3)c([N+](=O)[O-])c2)cc1,-0.831
12,CC(=O)NCC(=O)N[C@@H](CC(=O)OCc1ccccc1)C(=O)OCc1ccccc1 (Ac-Gly-Asp(OBn)-OBn),8.93
13,COc1ccc(C(=O)Nc2cc(S(=O)(=O)N3CCCCC3)ccc2OC)cc1,16.2
14,Cc1nc2ccccc2c2oc(C(=O)NCc3ccc4c(c3)OCO4)cc12,-15
15,N#CC(c1ccc(Cl)cc1)c1cccc(Cl)n1 (stereo not drawn),1.46
16,N#CCC(=N)N1CCN(c2ccccc2)CC1,1.97
17,CCN1/C(=C2/SC(=S)N(NC(C)=O)C2=O)Sc2ccc(OC)cc21,5.14
18,C=CCn1c(O)c(N=O)c2cc(C)ccc21,-8.69
19,C=CCN(C(=O)Nc1ccc(F)cc1)C1CC(=O)N(c2ccc(OC)cc2)C1=O (stereo not drawn),-14.3
20,C=CCNc1nnc(Cl)c2ccccc12,-10.4
21,CC1CC(C)CN(CC(O)COCc2ccccc2F)C1.Cl (stereo not drawn),-23.4
22,C=CC(C)C(C(=O)c1ccccc1)N(C)C (stereo not drawn),27.8
23,CCc1ccc(NCc2cc3c(C)nn(-c4ccccc4)c3[nH]c2=O)cc1,15.7
24,COc1ccc(C2c3c(ncn(Cc4ccco4)c3=N)Oc3ccc4ccccc4c32)cc1 (stereo not drawn),-7.04

# Source: PMC4336329 (PLoS ONE, 2015)
